Data taken from paper PMC4336329 (PLoS ONE, 2015).
The whole screen tested about 310,000 compounds, of which about 14,000 (4.5%) showed an effect of 50% or more. Effects have a minus sign here. This is one part of the list.

Molecular target: human ether-à-go-go-related gene (hERG) potassium channel (human, UniProt Q12809)
Test: primary screen, population patch clamp on CHO cells stably expressing hERG
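Note: peak tail current of the secondary pulse compared with the same well before compound.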

human ether-à-go-go-related gene (hERG) potassium channel, sequence (Q12809 whole entry, looked up): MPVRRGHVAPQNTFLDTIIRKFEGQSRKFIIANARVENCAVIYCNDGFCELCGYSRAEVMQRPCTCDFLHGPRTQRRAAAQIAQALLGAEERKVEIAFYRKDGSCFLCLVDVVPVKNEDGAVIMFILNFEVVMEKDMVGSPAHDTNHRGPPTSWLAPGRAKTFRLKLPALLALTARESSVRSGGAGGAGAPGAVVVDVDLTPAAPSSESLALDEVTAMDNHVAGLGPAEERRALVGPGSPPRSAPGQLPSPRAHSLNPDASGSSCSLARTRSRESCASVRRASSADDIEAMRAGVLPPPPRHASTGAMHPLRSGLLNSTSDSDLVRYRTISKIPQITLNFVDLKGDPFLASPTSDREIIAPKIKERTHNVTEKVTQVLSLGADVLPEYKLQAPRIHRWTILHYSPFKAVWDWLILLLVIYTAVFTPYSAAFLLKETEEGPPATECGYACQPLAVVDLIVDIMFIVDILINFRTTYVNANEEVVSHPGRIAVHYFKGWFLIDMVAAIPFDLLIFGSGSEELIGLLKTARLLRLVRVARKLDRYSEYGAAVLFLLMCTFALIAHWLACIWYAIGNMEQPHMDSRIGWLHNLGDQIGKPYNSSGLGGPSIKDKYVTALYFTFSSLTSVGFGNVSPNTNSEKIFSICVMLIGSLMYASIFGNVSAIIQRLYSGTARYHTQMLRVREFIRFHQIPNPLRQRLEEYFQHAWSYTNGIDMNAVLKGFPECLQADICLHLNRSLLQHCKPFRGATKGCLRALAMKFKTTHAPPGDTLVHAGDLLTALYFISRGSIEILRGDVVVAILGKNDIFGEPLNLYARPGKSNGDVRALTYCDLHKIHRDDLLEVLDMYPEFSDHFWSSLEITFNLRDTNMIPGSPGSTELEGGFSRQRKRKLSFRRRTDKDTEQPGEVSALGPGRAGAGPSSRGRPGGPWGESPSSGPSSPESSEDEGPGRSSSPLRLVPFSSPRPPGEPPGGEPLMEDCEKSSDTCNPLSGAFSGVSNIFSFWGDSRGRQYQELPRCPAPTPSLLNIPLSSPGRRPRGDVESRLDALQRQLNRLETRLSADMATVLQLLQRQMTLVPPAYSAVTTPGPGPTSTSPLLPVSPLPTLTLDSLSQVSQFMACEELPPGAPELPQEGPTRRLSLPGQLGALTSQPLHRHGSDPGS

SMILES	hERG current change (%, negative = inhibition) at 10uM [%]
CC(=O)N/C(=C\c1ccccc1)C(=O)OCC(=O)N(C)C1CCCCC1	6.43
Cc1ccc(NS(=O)(=O)c2csc(C(N)=O)c2)cc1C	15
O=C(CSc1nc(-c2ccccc2)nc2ccc(F)cc12)Nc1ccc(C(=O)O)cc1	19
CCOC(=O)C1(Cc2ccc(OC)cc2)CCN(C(=O)c2cncs2)CC1	-17.6
CC(C)CCN(C(=O)CNC(=O)c1ccco1)C(C(=O)NC1CCCCC1)c1cccnc1 (stereo not drawn)	-2.26
COc1cc(NC(=O)CN2C(=O)c3ccccc3Sc3ccc(C(=O)N4CCOCC4)cc32)cc(OC)c1OC	-18.3
Nc1c(C(=O)Nc2ccccc2)sc2ncc([N+](=O)[O-])cc12	16.8
COC(=O)C(C)(C)ONC(=O)Nc1ccccc1Br	6.43
C=CCOc1ccc(Br)cc1CNCCCN1CCOCC1.Cl	-27.7
Cc1c(C(=O)NC(=S)Nc2cccnc2)cccc1[N+](=O)[O-]	22.7
S=C(NCc1ccccc1)Nc1cccc2cnccc12	-24.5
Cc1ccc(Nc2cccccc2=O)cc1	-4.5
Cc1nc2c(C(=O)N3CCC4(CC3)OCCO4)cnn2c(C)c1Cc1cccc(Cl)c1	-46.8
Cc1cccc(NC(=O)/C(=C\c2ccc([N+](=O)[O-])o2)NC(=O)c2ccc(Cl)cc2)c1	-0.872
Cc1cc(C)nc(-n2nc(C)cc2NC(=O)c2cc3ccccc3oc2=O)n1	-22.1
O=[N+]([O-])c1ccc(COc2ccc(-c3[nH]ncc3-c3ccccc3)c(O)c2)cc1	-4.33
COc1ccc(Cc2cnc(N)s2)cc1	22.7
CO/N=C(/CNC(=O)c1ccccc1Cl)c1ccc(Cl)cc1	-11.3
CCc1ccc(Nc2n[n+](-c3ccccc3)c(-c3ccc(SC)cc3)s2)cc1.[Cl-]	-2.72
Cc1c(C)c2ccc(OCC(=O)N3C[C@H]4C[C@@H](C3)c3cccc(=O)n3C4)c(C)c2oc1=O	1.39
O=C(COC(=O)CCc1ccccc1)Nc1cc([N+](=O)[O-])ccc1F	-0.991
CC(=O)N1CCc2cc(S(=O)(=O)N3CCCCC3C)ccc21 (stereo not drawn)	-1.73

SMILES	hERG current change (%, negative = inhibition) at 10uM [%]
COCCC(=O)Nc1ccc2c(c1)CN(C(=O)CSC)CC2	7.01
O=C(C1CC(=O)N(c2ccccc2)C1)N1CCC(c2nc3ccccc3[nH]2)CC1 (stereo not drawn)	9.08
CCCCOC(=O)Nc1ccc(N2CCCCC2)cc1	-38.7
COc1cc(C(=O)NCc2ccncc2)cc(OC)c1OC	23.6
CCOc1ccc(Oc2ccc(S(=O)(=O)N3CCOCC3)cc2NC(=O)C2=COCCO2)cc1	-41.9
O=C(NCc1cccnc1)C1c2ccccc2C(=O)N1C1CCCC1 (stereo not drawn)	13
COC(=O)C(C)Oc1cc(OC(C)C(=O)OC)c2c(C)c(Cl)c(=O)oc2c1 (stereo not drawn)	-27.6
COc1ccc(NC(=O)COc2ccc(N(C)S(=O)(=O)c3ccc(Cl)cc3)cc2)cc1OC	-19.9
CC1CCCC(C)N1C(=O)Cn1c(SCC(=O)Nc2ccc3c(c2)OCO3)nc2ccccc21 (stereo not drawn)	-16.2
O=C(NCCCO)c1ccc(CSc2nc3ccccc3[nH]2)cc1	-8.65
Cc1ccc(N(CC(=O)NC2CCCC2)C(=O)CNC(=O)c2cccs2)c(C)c1	-1.45
CCOc1ccc(-n2c(=O)c3c4c(sc3n(CC(=O)NCc3ccco3)c2=O)CCC4)cc1	14.3
CN(C)c1nc(N/N=C/c2ccccc2O)nc(Nc2ccc(F)cc2)n1	10.7
O=C(CN(C(=O)c1ccccc1Cl)C1CCCCC1)Nc1ccc(Cl)c([N+](=O)[O-])c1	18.5
CC(C)N(Cc1nccn1C)C(=O)CCc1nnc(CCCc2ccccc2)o1	-21.3
CCCCc1c(C)nc2ccc(OC)cc2c1SCCC(=O)O	-3.33
COc1cccc(NC(=O)N(Cc2cc3cc(C)cc(C)c3[nH]c2=O)CC2COCCO2)c1 (stereo not drawn)	4.85
COC(=O)c1nn(-c2ccc(OC)cc2)c(=O)cc1Sc1ccc(C)cc1	7.3
c1ccc(Cn2cc(-c3ccccc3)cn2)cc1	-2.61
CS(=O)(=O)c1nc(S(=O)(=O)c2ccc(Cl)cc2)c(NCc2ccccn2)s1	-3.16
Cc1cc(C(=O)COC(=O)c2ccc(O)cc2O)c(C)n1C(C)C	0.326
CC(C)C1C(C#N)=C(N)Oc2n[nH]c(C(C)(C)C)c21 (stereo not drawn)	-18.1

SMILES	hERG current change (%, negative = inhibition) at 10uM [%]
CCN1CCN(CCCOc2ccccc2-c2ccccc2)CC1.O=C(O)C(=O)O	-66.6
COc1ccccc1NC(=S)NNC(=O)c1nn(C)c(C)c1Br	26.4
O=C(CCc1ccc(O)cc1)N/N=C/c1coc2ccccc2c1=O	1.81
CCS(=O)(=O)N1CCN(Cc2ccccc2OC)CC1.O=C(O)C(=O)O	11.7
CCCn1nc(C(=O)Nc2ccc3c(c2)OCO3)c2ccccc2c1=O	-12.4
CC(C)(C)NC(=O)/C=C/c1ccc(C(F)(F)F)cc1	3.92
CCN(CC)C(=O)CSc1nc(Cc2ccccc2)nc2ccccc12	22.5
CCOC(=O)C1=C(C)NC(=O)NC1c1ccc(OCCO)c(OC)c1 (stereo not drawn)	15.3
Cn1c(=O)c2c(nc(NCc3ccccc3)n2CC(=O)NCc2ccccc2)n(C)c1=O	0.0423
C[C@H]1CC[C@@]2(O[C@H](CCO)C[C@@H](O)[C@@H]2O)O1	6.89
O=C(O)c1ccc(N2C(=O)c3cccnc3C2=O)cc1	16.9
CCN(CC)S(=O)(=O)c1ccc(N2CCOCC2)c(C(=O)O)c1	-0.508
CC(C)(C)c1ccc(OCCC(=O)NCCc2ccc(S(N)(=O)=O)cc2)cc1	-16.1
COc1ccccc1Nc1nn2c(=O)c3ccc(C(=O)N4CCCC(C)C4)cc3nc2s1 (stereo not drawn)	-12.2
Cc1cc(C)c(NC2=NCC(=O)N2C2CCCCC2)c(C)c1	9.38
COc1ccc(/C=N\NC(=O)c2ccc(Cn3cc(Br)c([N+](=O)[O-])n3)o2)c(OC)c1C	14
CC(C(=O)NCCC1=CCCCC1)N1C(=O)c2ccccc2C1=O (stereo not drawn)	-11.2
CCOC(=O)/C(C#N)=C/c1c(Oc2cccc(C)c2)nc2c(C)cccn2c1=O	8.68
CCOC(=O)Cc1ccc(NC(=O)c2ccc([N+](=O)[O-])cc2)cc1	15
COCCn1c(=NC(=O)CSC(C)=O)sc2cc(OC)ccc21	-37.7
C(=C\c1ccccc1)/CSc1ccccn1	4.22
C=CCOc1ccc(NC(=O)C(=O)NCCCn2ccnc2)cc1	-16

SMILES	hERG current change (%, negative = inhibition) at 10uM [%]
CC1(C)C(=O)Nc2ccccc2N1C(=O)COc1cccnc1[N+](=O)[O-]	2.46
CCOC(=O)C1CCN(Cc2cn[nH]c2-c2ccccc2)CC1.O=C(O)C(=O)O	-9.8
Cc1cccc(Cn2c(SCCN3CCOCC3)nc3c2c(=O)n(C)c(=O)n3C)c1	-26.2
Cc1ccccc1NC(=S)N(Cc1ccccn1)Cc1ccccc1Cl	-15.6
CCc1ccc(C(=O)COC(=O)c2n[nH]c3ccccc23)cc1	6.65
O=c1[nH]c(SCc2c(Cl)cccc2Cl)nc2ccccc12	-6.38
Cc1cc(C(=O)N2CCCC(N3CCN(c4ccc(F)cc4)CC3)C2)c(C)o1 (stereo not drawn)	-59.1
O=C(O)/C=C/C(=O)Nc1ccc(Cc2ccc(NC(=O)/C=C/C(=O)O)cc2)cc1	19.6
O=c1[nH]c(=S)n(CCC2=CCCCC2)c(O)c1/C=N/N1CCOCC1	-41.8
CC(C)NC(=O)N(Cc1ccc(Cl)cc1)Cc1cccs1	-10.4
CNC(=O)c1ccc(N(Cc2ccccc2C)S(C)(=O)=O)cc1	-6
O=C(NNC(=S)NCc1ccccc1)c1ccc2c(c1)OCO2	8.77
O=C(CN1CCN(S(=O)(=O)c2ccc(Cl)c(Cl)c2)CC1)N1CCCCC1	-53.5
CC1CCCC(NC(=O)CCC(=O)N2CCOc3ccccc32)C1C (stereo not drawn)	-1.16
CN(Cc1ccon1)C(=O)CCc1nnc(CCCCc2ccccc2)o1	0.885
Cc1cc(C)c(S(=O)(=O)N2CCCc3ccccc32)c(C)c1	6.75
CCc1cc2c(s1)NC(=O)CN=C2c1cccs1	-26.4
Brc1ccc2ncnc(Nc3cccc4ccccc34)c2c1	-0.625
S=c1[nH]nc(Cc2cccc3ccccc23)n1-c1ccccc1	1.39
CCn1c(SCC(=O)N2CCCC2=O)nnc1-c1cccs1	16.4
Fc1cccc2sc(Nc3nc4cc5c(cc4s3)OCCO5)nc12	20.4
